From PubChem BioAssay AID1159614 (National Center for Advancing Translational Sciences (NCATS), 2016)
Screen size: about 45,000 compounds; about 65 (0.1%) were called active. The call rests on the fitted dose curve; in most records, active means well fitted activation curve with a large enough effect; inconclusive means small, poorly fitted or top-dose-only effect; inactive means no such curve, though single readings can be large or run the other way. The list shows a part of the results.

biological target: Galactocerebrosidase (Homo sapiens) (UniProt P54803); experiment: A Novel Cell-Based Assay to Identify Small Molecules for B -Galactocerebrosidase; conditions: 145M-Twi-hGALC-G270D cells (Twitcher mouse brain line with human GALC G270D), HMU-beta-Gal fluorescence, 48 h; series mostly up to 57.5 µM; activation: at the top concentration; further: 0% is about no effect; nearly all actives have a fitted effect of over 65% in size
In short: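 Mutant human GALC (G270D), stably expressed in a Twitcher mouse brain cell line lacking endogenous GALC, is measured in live-treated cells via 6-hexadecanoylamino-4-methylumbelliferyl-β-galactoside hydrolysis (0.1 mM final, pH 5.2) with fluorescent detection.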

Sequence of UniProt P54803 (P54803 whole entry, looked up): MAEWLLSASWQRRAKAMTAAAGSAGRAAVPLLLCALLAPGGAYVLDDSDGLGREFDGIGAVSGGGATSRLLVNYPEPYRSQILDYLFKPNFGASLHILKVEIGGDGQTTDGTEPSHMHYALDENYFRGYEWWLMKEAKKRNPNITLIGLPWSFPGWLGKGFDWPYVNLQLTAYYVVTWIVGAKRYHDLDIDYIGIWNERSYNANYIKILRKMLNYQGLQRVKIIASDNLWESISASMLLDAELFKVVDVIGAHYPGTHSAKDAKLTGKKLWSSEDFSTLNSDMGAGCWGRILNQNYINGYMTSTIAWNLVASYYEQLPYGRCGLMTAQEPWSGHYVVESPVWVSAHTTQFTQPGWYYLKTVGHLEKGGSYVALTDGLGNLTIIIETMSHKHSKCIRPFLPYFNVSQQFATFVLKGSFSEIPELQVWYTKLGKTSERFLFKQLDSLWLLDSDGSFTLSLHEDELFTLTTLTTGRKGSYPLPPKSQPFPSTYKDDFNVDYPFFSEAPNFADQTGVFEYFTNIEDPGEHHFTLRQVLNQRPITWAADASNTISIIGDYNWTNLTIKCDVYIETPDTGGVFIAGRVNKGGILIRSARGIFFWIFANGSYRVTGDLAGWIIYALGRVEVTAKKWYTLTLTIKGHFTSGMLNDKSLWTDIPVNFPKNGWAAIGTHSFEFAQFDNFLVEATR

activation, inactive:
CCc1cccc(NC(=O)c2nc(-c3ccncc3)no2)c1 2.73%
Cc1ccc(NCc2cccn2-c2nnc(N3CCC(C(=O)NCCc4ccccc4)CC3)s2)cc1 -22.3%
COc1cccc(CNC(=O)N2CCC(CN3CCC(C)CC3)CC2)c1 -7.07%
Fc1cccc(NCc2cccn2-c2nnc(N3CCOCC3)s2)c1 -21.4%
Cc1ccc(CCNC(=O)c2c(C)oc3ncnc(N4CCOCC4)c23)cc1 -10.7%
CCOc1ccccc1NC(=O)CN(CCc1ccccc1)S(=O)(=O)c1ccc(C)cc1 -4.07%
Cn1nnc2c(N3CCCCC3)ncnc21 -14.4%
COCCc1nn2c(=O)cc(COC(=O)c3cccs3)nc2s1 -20.5%
Clc1ccc(CNc2nc3ccccc3c3nc(-c4cccnc4)nn23)cc1 13.9%
CCn1ccc2cc(S(=O)(=O)N3CCC(C(=O)NCCc4ccc(SC)cc4)CC3)ccc21 -6.54%
CCc1cccc(C)c1NC(=O)CN1C(=O)c2c(c3ccccc3n2C)C1c1ccc(OC)cc1 (configuration not stated) -5.23%
COc1ccc(NC(=O)CSc2nc(-c3ccc(OC)cc3)[nH]c2-c2ccc(F)cc2)cc1 2.17%
COc1ccccc1NC(=O)c1ccccc1NC(=O)c1ccccc1 -7.06%
CN(C)c1ccc(CNC(=O)CCC(=O)N2Cc3ccccc3Oc3ncccc32)cc1 6.17%
COc1ccc(-c2c3c(nc4sc(C(=O)Nc5ccc(Cl)cc5)c(N)c24)CC(C)(C)CC3=O)cc1 -13.4%
Cc1ccc(CN(C(=O)COc2ccc(C(C)(C)C)cc2)C2CCS(=O)(=O)C2)o1 (configuration not stated) -12.7%
COCCCNC(=O)Nc1cc(C(=O)NCc2ccc(OC)cc2)ccc1N1CCCC1 -14.4%
CCc1ccccc1NC(=O)C(NS(=O)(=O)c1ccc2c(c1)CCC(=O)N2)c1ccccc1 (configuration not stated) -14.3%
CCCCN(C)C(=O)CN1C(=O)CCn2nc(-c3cn(C)c4ccccc34)cc21 -4.06%
COc1cccc(CCNC(=O)c2c(O)nc3cc(C)ccn3c2=O)c1 -9.58%
COc1ccc(-c2nc(CCNC(=O)c3cccs3)cs2)cc1OC -16.3%
O=C(O)Cn1nc(N2CCN(c3ccc(F)cc3)CC2)ccc1=O -13%
O=c1cc(-c2ccccc2)n2c(SCc3ccc([N+](=O)[O-])cc3)nnc2[nH]1 -12%
COC(=O)c1ccccc1NC(=O)c1ccc2c(c1)CCN2S(=O)(=O)c1ccc(C)cc1 -9.73%
CC1=C(C(N)=O)C(c2cccc(F)c2)n2nc(SCc3ccccc3)nc2N1 (configuration not stated) -11.3%
COc1ccc2cc(CNc3ccc(C)cc3)c(=O)n(CC(=O)Nc3ccc(OC)c(Cl)c3)c2c1 -1.43%
CCCCc1ccc(C(=O)Nc2ccc3nc(N(CC)CC)cc(C)c3c2)cc1 -4.28%
O=C(CCCn1c(=O)c2sccc2n(Cc2ccc(F)cc2Cl)c1=O)NCc1ccc2c(c1)OCO2 -10.7%
COc1ccccc1CNC(=O)c1cc(Sc2cccc(Cl)c2)nc2ccccc12 -16.3%
COc1cc(OC)c(NC(=O)C2=C(C)C(=O)OC23CCCCC3)cc1Cl -6.45%
CCc1ccc(C(=O)c2cnc3ccc(C)cc3c2S(=O)(=O)c2ccc(OC)cc2)cc1 -13.9%
O=C(CCc1nc2cccnc2n1Cc1ccccc1)NCc1cccc(Cl)c1 -3.44%
Cc1ccccc1Nc1ncnc2c1c(-c1ccccc1)cn2-c1ccc(F)cc1 -4.12%
O=C(Nc1cccc(Cl)c1)c1ccc2nc(Cc3ccccc3)oc2c1 -26.2%
OCc1cnc(SCc2cccc(F)c2)n1Cc1ccc(F)cc1 -10.5%
Cc1c(C(=O)N2CCCC2)oc2c1-c1nn(CC(=O)NCc3cccc(F)c3)cc1CC2 5.71%
Cc1ccc2c(c1)N(C(=O)N1CCC(C(=O)NCCC3=CCCCC3)CC1)CC(C)O2 (configuration not stated) -16.6%
COC(=O)NNC(=O)C1CCC(C)CC1 (configuration not stated) -3.51%
CN1c2ccc(Cl)cc2-c2nc(SCC(=O)Nc3cc(F)ccc3F)ncc2S1(=O)=O -12%
Cc1cccc(N2C(=O)CS(=O)(=O)C23C(=O)N(C)c2ccccc23)c1 (configuration not stated) -21.4%
CCCCn1c(CNC(=O)C23CC4CC(CC(C4)C2)C3)nnc1SCC(=O)Nc1ccccc1 -37.6%
CCN(CC)CCCNC(=O)CCc1c(C)n(CC)c2cc(-c3ccccc3OC)nn2c1=O -11.7%
Cc1ncc(COC(=O)C(C)C)c2cc(C(=O)Nc3ccccc3C(F)(F)F)c(=O)oc12 -9.74%
CCOc1ccc(CCNc2ncnc3onc(-c4ccc(F)cc4)c23)cc1OCC -18.9%
CCOC(=O)COc1ccc([N+](=O)[O-])cc1-c1ccnc2cc(-c3ccc(C)cc3)nn12 -11.1%
Cc1ccc(C)c(N2CCN(CCCNC(=O)c3ccc4nc(N5CCCCC5)sc4c3)CC2)c1 -11.8%
Cc1ccc(-c2nnc(Nc3ccccc3)c3ccccc23)cc1S(=O)(=O)NCc1nc2ccccc2[nH]1 -23%
COc1ccc(C(=O)N(c2ccc(OC)cc2)S(=O)(=O)c2ccc3c(c2)n(C)c(=O)n3C)cc1 -18%
Cc1cccc(C)c1NS(=O)(=O)c1ccc(NS(=O)(=O)c2ccc3c(c2)OCCO3)cc1 -6.95%
COc1ccc(CNC(=O)c2cc(=O)c3cc(C)ccc3o2)cc1 -9.38%
C=Cc1ccc(COc2ccc3oc(-c4ccccc4)c(C(=O)OCC)c3c2)cc1 -21.4%
O=C(Nc1noc2ccccc12)c1ccc(F)cc1 -18.1%
CCOC(=O)c1ccc(NC(=O)C2(S(=O)(=O)c3ccc(Cl)cc3)CC2)cc1 -1.65%
COc1cccc(CNC(=O)CSC2=Nc3ccccc3C3=NC(C(C)C)C(=O)N23)c1 (configuration not stated) -27.2%
Cc1ccccc1NC(=O)CCC(=O)N1CC(C)Sc2ccccc21 (configuration not stated) -6.62%
O=C(Nc1cccc(Cl)c1Cl)c1cc(S(=O)(=O)NCCc2ccccc2)ccc1F 20.3%
O=C(CN1C(=O)C2(SCC(=O)N2c2ccccc2)c2ccccc21)NCc1ccccc1 (configuration not stated) -12.4%
NC(=O)CSc1ncc2c(n1)-c1ccccc1N(Cc1ccc(Cl)cc1)S2(=O)=O -25.2%
COc1ccccc1C(=O)Nc1cccc(C(=O)OCc2cc(=O)n3nc(C)sc3n2)c1 -13.2%
Cc1c(Cl)cccc1NC(=O)Cn1nnc2sc3c(c2c1=O)CCCC3 -9.53%
O=C(c1cc2ccc3cccnc3c2[nH]1)N1CCN(c2ccc(Cl)cc2)CC1 -13.5%
O=C(NCc1ccc2c(c1)CCN2C(=O)c1ccc(F)cc1)c1ccco1 -17.9%
Cc1nn(CC(=O)Nc2cc(F)ccc2F)c(=O)c2cccn12 -8.07%
CC(C)(C)c1ccccc1NC(=O)CSc1nc(-c2cccs2)cc(C(F)(F)F)n1 -2.98%
Cc1cc(Nc2ccc(Cl)cc2C)nc(-n2nc(C)cc2C)n1 -4.16%
CC(C)c1noc(-c2ccccc2OCC(=O)Nc2ccccc2[N+](=O)[O-])n1 -11.3%
CCC(NC(=O)Nc1cc(OC)ccc1OC)c1c(-n2cccc2)sc2c1CCN(CC)C2 (configuration not stated) -30.3%
CCN(C(=O)c1cc2c(=O)n3cccc(C)c3nc2s1)c1ccc(C)c(C)c1 8.79%
Cc1c(CNC2CCCCC2)c(C(=O)O)c(C)n1Cc1ccc(F)cc1 -5.75%
CCOc1ccc(C(=O)Nc2ccc(-n3nncc3-c3ccccc3)cc2)cc1OCC -6.14%
CCC(=O)Nc1ccc2nc3c(=O)n(C)c(=O)n(C)c3nc2c1 -6.15%
CCOC(=O)c1c(NC(=O)CSc2cn(CCNC(=O)c3ccccc3OC)c3ccccc23)sc2c1CCC2 -6.78%
CC(C)c1nc2n(n1)C1(CCCCC1)[C@@H]1CCCC[C@@H]1N2 -6.96%
COc1cccc(CNC(=O)C2(c3cccs3)CCOCC2)c1 -13.7%
CCCCCC(=O)Nc1ccc(NC(=O)c2cc3ccccc3o2)c(OC)c1 3.03%
O=C(CSc1nc2c([nH]c3ccccc32)c(=O)n1-c1cccc(Cl)c1)N1CCOCC1 -6.38%
Cc1oc(-c2cccc(Cl)c2)nc1CN1CCCC(C(=O)N2CCN(c3ccc(F)cc3)CC2)C1 (configuration not stated) -9.3%
Cc1cccc(Cn2c(C)c(CNC3CCCCCC3)c(C(=O)O)c2C)c1 -15.5%
COc1c(Cl)cc(C(=O)N(Cc2ccc(C)o2)C2CCS(=O)(=O)C2)cc1Cl (configuration not stated) -9.89%
O=C(Cn1c(=O)c2ccccc2n(CC(=O)Nc2ccc(F)cc2)c1=O)NCCc1ccccc1 11.3%
CCOc1ccc(-n2c(CC)nc3c(cnn3-c3ccc(Cl)cc3)c2=O)cc1 -8.13%
COc1ccc(-c2nc3c4ccccc4n(CC(=O)N4CCN(c5ccc(F)cc5)CC4)c(=O)n3n2)cc1 -7.86%
Cc1ccc(C(=O)c2oc3ccccc3c2NC(=O)COc2ccccc2Cl)cc1 -16.6%
COc1cccc(NC(=O)Cn2c(=O)n(CCc3ccccc3)c(=O)c3c4c(sc32)CN(C(C)=O)CC4)c1 -13.2%
Cc1cc(C)n(-c2nc3ccccc3nc2N2CCN(c3cccc(C)c3C)CC2)n1 -4.73%
CCOC(=O)c1cc2c(=O)n3ccccc3nc2n(CC2CCCO2)c1=NC(=O)c1ccc(OC)cc1OC (configuration not stated) -9.45%
CCOc1ccc(NC(=O)NCc2ccc3c(c2)CCN3C(C)=O)cc1 3.84%
CCCNC(=O)C(CC)n1nc(CC)n2c(cc3oc(C)cc32)c1=O (configuration not stated) -11.5%
CCCN(CCC)CCCNC(=O)Cn1cc2c(n1)-c1c(oc(C(=O)N3CCCC3)c1C)CC2 -2.77%
CCOC(=O)N1CCc2c(sc3c2C(=O)NC(c2cc(OC)c(O)c(OC)c2)N3)C1 (configuration not stated) -12%
COc1cccc(C(=O)c2cn(CC(=O)NCCc3ccccc3)c3nc(C)ccc3c2=O)c1 -6.63%
CCCCC(CC)CNC(=O)c1ccc(Cn2c(=O)[nH]c3cc(OC)c(OC)cc3c2=O)cc1 (configuration not stated) 0.451%
CCOc1ccccc1NC(=O)CSc1nnc(CC)c(CC)n1 -15.1%
COc1ccc(-c2nn(C)c3sc(C(=O)Nc4cc(OC)c(OC)c(OC)c4)cc23)cc1OC -38.9%
CCCN(C(=O)c1c(C)oc2ncn(CC(C)C)c(=O)c12)c1ccccc1C -12%
CCCCC(=O)OCC(=O)[C@H]1[C@H](C)C[C@H]2[C@@H]3C[C@H](F)C4=CC(=O)C=C[C@]4(C)[C@@]3(F)[C@@H](O)C[C@@]21C -12.1%

Potency, inactive:
NC(=Nc1ccccc1)Nc1ccccc1
